Results reported in PubChem BioAssay AID686971 (National Center for Advancing Translational Sciences (NCATS), 2013).
In all, about 360,000 compounds went through this assay and about 7,500 (2.1%) were called active. The inconclusive results got no clear call from the source; some entries with a clear call stand among them for comparison. Calls come from the whole dose curve; as a rule, active = well fitted cell-killing curve with a large enough effect; inconclusive = small, poorly fitted or top-dose-only effect, or effect the other way, or another doubt; inactive = no such curve, though single readings can be large or run the other way. No potency is given beside an inconclusive call; the fits are too rough.

experiment: qHTS for induction of synthetic lethality in tumor cells producing 2HG: qHTS for the HT-1080-IDH1KD cell line; conditions: HT-1080 IDH1 knockdown viability, ATP luminescence, 48 h; activity, negative = toxicity: at 46.1 µM (top of the series) unless noted;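 for activity, negative = toxicity: 0% = DMSO wells and -100% = cell-free medium wells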
How it was run: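 Cytotoxicity counter-line: IDH1KD HT-1080, 48 h, CellTiter-Glo. Curves classed by r2, magnitude and activity.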
Potency is the fitted concentration of half-maximal effect; tags give direction and shape of the fitted curve.

| Compound | Potency | activity, negative = toxicity |
| --- | --- | --- |
| CC(=O)c1c(C)oc2c1cc(NS(=O)(=O)c1ccc(C(=O)O)cc1)c1ccccc12 | inconclusive [cytotoxic, partial curve, poor fit] | – |
| CC1CCc2c(sc(NC(=O)CSc3ncn[nH]3)c2C#N)C1 (configuration not stated) | inconclusive [cytotoxic, single point] | – |
| CC(C)=CC(O)C/C(C)=C/COc1ccc2ccc(=O)oc2c1 (configuration not stated) | inconclusive [cytotoxic, single point] | – |
| COc1ccc(-c2nnc(-c3ccc(N(C)C)cc3)o2)cc1 | inconclusive [rising, partial curve] | – |
| O=C(/C=C/c1ccc(OC2CSC2)cc1)c1ccccc1 | inconclusive [cytotoxic, single point] | – |
| CN(c1ccc(C(=O)Nc2ccc(F)cc2F)cc1)S(=O)(=O)c1ccccc1 | inactive | – |
| CCCCOc1ccc(C(=O)NN2CCOCC2)cc1 | inactive | – |
| Cc1ccc(S(=O)(=O)N2C[C@H]3C(=O)C[C@@H](c4ccccc4C)N(S(=O)(=O)c4ccc(C)cc4)[C@H]3C[C@H]2c2ccccc2)cc1 | inactive | – |
| COc1ccccc1NC(=O)c1ccc(-n2cncn2)nc1 | inconclusive [rising, single point] | – |
| CS(=O)(=O)c1ccc(Cl)c(NC(=O)CCl)c1 | inconclusive [cytotoxic, single point] | – |
| COc1ccc(NC(=O)CSc2ncnc3c2sc2ccccc23)c(OC)c1 | inactive | – |
| CC(C)N(CC(=O)Nc1ccc(Cl)cc1C(F)(F)F)C(=O)CCl | active: 6.51 µM | – |
| COc1ccc2cc(C(=O)C3CCCN(Cc4cccc(C)n4)C3)ccc2c1 (configuration not stated) | active: 23.1 µM | – |
| Cc1ccc2[nH]c3c(c2c1)CCc1cn[nH]c1-3 | inconclusive [cytotoxic, single point] | – |
| CCN(CC)S(=O)(=O)c1ccc(Cl)c(NC(=O)COC(=O)c2cccn2C)c1 | inconclusive [cytotoxic, partial curve] | – |
| Cc1cccc(C(=O)NCc2nnc(SC(C)C(=O)Nc3nnc(C)s3)n2C)c1 (configuration not stated) | – | inconclusive: -6.09% [cytotoxic] |
| CCN1C(=O)[C@@H]2[C@@H](c3ccc(-c4ccc(OC)cc4)cc3)N3CCC[C@@]3(C(=O)OC)[C@@H]2C1=O | inactive | – |
| NS(=O)(=O)c1ccc(N/N=C/c2ccccc2C(=O)O)c([N+](=O)[O-])c1 | inactive | – |
| CC(C)(C)c1cc(NS(=O)(=O)c2cccs2)no1 | inactive | – |
| O=C(CN1CCCCC1)Nc1ccc(S(=O)(=O)c2ccc(NC(=O)CN3CCCCC3)cc2)cc1 | inactive | – |
| CC(C)c1ccc(NC(=O)C(=O)c2cn(CC(=O)N3CCCCC3)c3ccccc23)cc1 | inactive | – |
| COC(=O)Cc1csc(Nc2ccccc2Cl)n1 | – | inconclusive: 34% |
| Cc1cc(C(=O)Nc2ccc(Cl)cc2)c(C)n1-c1ccccc1 | inconclusive [cytotoxic, partial curve] | – |
| COc1ccc2cc(-c3cc(C(=O)O)c4ccccc4n3)ccc2c1 | inconclusive [cytotoxic, partial curve] | – |

| Compound | Potency | activity, negative = toxicity |
| --- | --- | --- |
| CN(CCc1ccccc1)C(=O)c1ccc(NC(=O)Cc2cccc(NC(=O)C3CCN(C(=O)C4CCC4)CC3)c2)cc1 | inactive | – |
| O=C(COc1ccc(-c2nnc(N3CCCCC3)c3ccccc23)cc1)N1CCCCC1 | inconclusive [cytotoxic, single point] | – |
| Cc1cc(Cl)ccc1-c1nc(NCCN(C)C)nc2ccsc12 | active: 23.1 µM | – |
| CC1(c2ccc(OC(F)F)cc2)NC(=O)N(CC(=O)Nc2cccc(F)c2)C1=O (configuration not stated) | inconclusive [cytotoxic, single point] | – |
| O=C(Cn1cc(COc2ccc(C(=O)c3ccccc3)cc2)nn1)c1ccc(O)cc1 | inconclusive [cytotoxic, full curve] | – |
| COC(=O)c1sccc1NC(=O)c1cccc(Cl)c1 | – | inconclusive: -24.3% [cytotoxic] |
| COc1cc(/C=C2/SC(=S)NC2=O)ccc1OS(=O)(=O)c1ccc(C)cc1 | inconclusive [cytotoxic, partial curve] | – |
| CC(C)/C=N/Nc1nc(-c2ccc(Br)cc2)cs1 | inactive | – |
| CC(C(=O)Nc1cc(Cl)cc(Cl)c1)N1CCCC1 (configuration not stated) | inactive | – |
| Cc1ccc(C)c(N2CCN(C(=O)CCC(=O)N3CCOc4ccc(Cl)cc43)CC2)c1 | inconclusive [cytotoxic, single point] | – |
| O=C(NCCNc1ccc([N+](=O)[O-])cc1)c1cccc(Br)c1 | inactive | – |
| CCc1cc(-c2n[nH]c(C)c2Oc2ccc(C(C)C)cc2)c(O)cc1O | inconclusive [cytotoxic, single point] | – |
| CCOC(=O)C1=Nc2ccccc2C1=[N+]=[N-] | inconclusive [cytotoxic, single point] | – |
| CCOC(=O)N1CCC(NC(=O)CNS(=O)(=O)c2ccc(Br)s2)CC1 | inconclusive [cytotoxic, single point] | – |
| CCn1cc([N+](=O)[O-])c(C(=O)Nc2nc(-c3ccc(C)c(C)c3)c(C)s2)n1 | active: 10 µM | – |
| CCCOc1ccc(N)cc1N | inconclusive [cytotoxic, single point] | – |
| COc1cc2nc(CCNCc3ccccc3)nc(NC3CCN(C)CC3)c2cc1OC | inconclusive [cytotoxic, single point] | – |
| COc1ccc(-n2cnc(N)c2C(=O)c2cccc([N+](=O)[O-])c2)cc1 | inconclusive [cytotoxic, single point] | – |
| Cc1ccc(NC(=O)CNc2ccc(N3CCOCC3)cc2)cc1S(=O)(=O)N(C)C | inactive | – |
| O=C(CNC(=O)c1ccco1)N/N=C/c1cc(Br)ccc1O | active: 25.9 µM | – |
| Cn1c(OCc2cccnc2)nc2c1c(=O)n(Cc1ccc(F)cc1)c(=O)n2C | inactive | – |
| CCc1cc(-c2nnn(CCC3COCCO3)c2CC)cc(CC)c1-c1cn(Cc2ccc3ccccc3c2)nn1 (configuration not stated) | inactive | – |
| CC(CCc1ccccc1)NC(=O)C1CCN(S(=O)(=O)N2CCOCC2)CC1 (configuration not stated) | inactive | – |
